# Results: the supplement of paper PMC8728848
# Some of the results follow.
# B1: CpGal16 (Clavelina picta) (protein)
# chain: MAKMITNYVGKRIECIMVATDMMSTVFSLASATGDLPFYINFRQRENSIVMNTRVHGKWQYEKSQSSGGMNFYEPFRLVVEVRPSVFKVTVSTMGEEDGITFNLQYSQITIKPDEIVAMHLGYCNLRSELLVTDL
# Columns and labels:
# Assay in all cases: glycan array binding signal (z-score within array); higher = stronger binding
# Settings in all cases: glycan notation: IUPAC condensed, linker removed
# Fuc(a1-2)Gal = target: Fuc(a1-2)Gal
# How it was run: (§1)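 Arrays were curated from the Consortium for Functional Glycomics database, 3228 in total, and kept only where the protein sequence was available. Binding is expressed as a within-array Z-score. This score was averaged across arrays of the same protein sequence at different concentrations or buffers and across linkers, and negative values can be read as non-binding.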
# Fuc(a1-2)Gal(b1-3)GalNAc = target: Fuc(a1-2)Gal(b1-3)GalNAc
# How it was run: as §1
# [1] = target: Fuc(a1-2)Gal(b1-3)GalNAc(a1-3)[Fuc(a1-2)]Gal(b1-4)Glc
# How it was run: as §1
# [2] = target: Fuc(a1-2)Gal(b1-3)GalNAc(a1-3)[Fuc(a1-2)]Gal(b1-4)GlcNAc
# How it was run: as §1
# [3] = target: Fuc(a1-2)Gal(b1-3)GalNAc(b1-3)Gal
# How it was run: as §1
# [4] = target: Fuc(a1-2)Gal(b1-3)GalNAc(b1-3)Gal(a1-4)Gal(b1-4)Glc
# How it was run: as §1
# [5] = target: Fuc(a1-2)Gal(b1-3)GalNAc(b1-4)[Neu5Ac(a2-3)]Gal(b1-4)Glc
# How it was run: as §1
# Fuc(a1-2)Gal(b1-3)GlcNAc = target: Fuc(a1-2)Gal(b1-3)GlcNAc
# How it was run: as §1
# [6] = target: Fuc(a1-2)Gal(b1-3)GlcNAc(b1-2)Man(a1-3)[Fuc(a1-2)Gal(b1-3)GlcNAc(b1-2)Man(a1-6)]Man(b1-4)GlcNAc(b1-4)GlcNAc
# How it was run: as §1
# [7] = target: Fuc(a1-2)Gal(b1-3)GlcNAc(b1-2)Man(a1-3)[Fuc(a1-2)Gal(b1-3)GlcNAc(b1-2)Man(a1-6)]Man(b1-4)GlcNAc(b1-4)[Fuc(a1-6)]GlcNAc
# How it was run: as §1
# [8] = target: Fuc(a1-2)Gal(b1-3)GlcNAc(b1-3)Gal(b1-4)Glc
# How it was run: as §1
# [9] = target: Fuc(a1-2)Gal(b1-3)GlcNAc(b1-3)GalNAc
# How it was run: as §1
# [10] = target: Fuc(a1-2)Gal(b1-3)GlcNAc(b1-3)[Fuc(a1-2)Gal(b1-3)GlcNAc(b1-6)]GalNAc
# How it was run: as §1
# [11] = target: Fuc(a1-2)Gal(b1-3)GlcNAc(b1-3)[Gal(b1-4)GlcNAc(b1-6)]Gal(b1-4)Glc
# How it was run: as §1
# [12] = target: Fuc(a1-2)Gal(b1-3)GlcNAc(b1-3)[Neu5Ac(a2-6)Gal(b1-4)GlcNAc(b1-6)]Gal(b1-4)Glc
# How it was run: as §1
# [13] = target: Fuc(a1-2)Gal(b1-3)GlcNAc6S
# How it was run: as §1
# [14] = target: Fuc(a1-2)Gal(b1-3)[Fuc(a1-4)]GlcNAc
# How it was run: as §1
# [15] = target: Fuc(a1-2)Gal(b1-3)[Fuc(a1-4)]GlcNAc(b1-2)Man(a1-3)[Fuc(a1-2)Gal(b1-3)[Fuc(a1-4)]GlcNAc(b1-2)Man(a1-3)]Man(b1-4)GlcNAc(b1-4)GlcNAc
# How it was run: as §1
# [16] = target: Fuc(a1-2)Gal(b1-3)[Fuc(a1-4)]GlcNAc(b1-2)Man(a1-3)[Fuc(a1-2)Gal(b1-3)[Fuc(a1-4)]GlcNAc(b1-2)Man(a1-6)]Man(b1-4)GlcNAc(b1-4)[Fuc(a1-6)]GlcNAc(b1-4)[Fuc(a1-6)]GlcNAc
# How it was run: as §1
# [17] = target: Fuc(a1-2)Gal(b1-3)[Fuc(a1-4)]GlcNAc(b1-3)[Fuc(a1-3)[Gal(b1-4)]GlcNAc(b1-6)]Gal(b1-4)Glc
# How it was run: as §1
# [18] = target: Fuc(a1-2)Gal(b1-3)[Fuc(a1-4)]GlcNAc(b1-3)[Gal(b1-4)GlcNAc(b1-6)]Gal(b1-4)Glc
# How it was run: as §1
# [19] = target: Fuc(a1-2)Gal(b1-4)Fuc(a1-3)]GlcNAc(b1-2)Man(a1-3)[Fuc(a1-2)Gal(b1-4)[Fuc(a1-3)]GlcNAc(b1-2)Man(a1-6)]Man(b1-4)GlcNAc(b1-4)GlcNAc
# How it was run: as §1
# Fuc(a1-2)Gal(b1-4)Glc = target: Fuc(a1-2)Gal(b1-4)Glc
# How it was run: as §1
# Fuc(a1-2)Gal(b1-4)Glc6S = target: Fuc(a1-2)Gal(b1-4)Glc6S
# How it was run: as §1
# Fuc(a1-2)Gal(b1-4)GlcNAc = target: Fuc(a1-2)Gal(b1-4)GlcNAc
# How it was run: as §1
# [20] = target: Fuc(a1-2)Gal(b1-4)GlcNAc(b1-2)Man
# How it was run: as §1
# [21] = target: Fuc(a1-2)Gal(b1-4)GlcNAc(b1-2)Man(a1-3)[Fuc(a1-2)Gal(b1-4)GlcNAc(b1-2)Man(a1-6)]Man(b1-4)GlcNAc(b1-4)GlcNAc
# How it was run: as §1
# [22] = target: Fuc(a1-2)Gal(b1-4)GlcNAc(b1-2)Man(a1-3)[Fuc(a1-2)Gal(b1-4)GlcNAc(b1-2)Man(a1-6)]Man(b1-4)GlcNAc(b1-4)[Fuc(a1-6)]GlcNAc
# How it was run: as §1
# [23] = target: Fuc(a1-2)Gal(b1-4)GlcNAc(b1-2)[Fuc(a1-2)Gal(b1-4)GlcNAc(b1-4)]Man(a1-3)[Fuc(a1-2)Gal(b1-4)GlcNAc(b1-2)Man(a1-6)]Man(b1-4)GlcNAc(b1-4)GlcNAc
# How it was run: as §1
# [24] = target: Fuc(a1-2)Gal(b1-4)GlcNAc(b1-3)Gal(b1-4)GlcNAc
# How it was run: as §1
# [25] = target: Fuc(a1-2)Gal(b1-4)GlcNAc(b1-3)Gal(b1-4)GlcNAc(b1-2)Man(a1-3)[Fuc(a1-2)Gal(b1-4)GlcNAc(b1-3)Gal(b1-4)GlcNAc(b1-2)Man(a1-6)]Man(b1-4)GlcNAc(b1-4)GlcNAc
# How it was run: as §1
# [26] = target: Fuc(a1-2)Gal(b1-4)GlcNAc(b1-3)Gal(b1-4)GlcNAc(b1-3)Gal(b1-4)GlcNAc
# How it was run: as §1
# [27] = target: Fuc(a1-2)Gal(b1-4)GlcNAc(b1-3)GalNAc
# How it was run: as §1
# [28] = target: Fuc(a1-2)Gal(b1-4)GlcNAc(b1-3)[Fuc(a1-2)Gal(b1-4)GlcNAc(b1-6)]GalNAc
# How it was run: as §1
# [29] = target: Fuc(a1-2)Gal(b1-4)GlcNAc(b1-3)[Fuc(a1-3)[Gal(b1-4)]GlcNAc(b1-6)]Gal(b1-4)Glc
# How it was run: as §1
# [30] = target: Fuc(a1-2)Gal(b1-4)GlcNAc(b1-6)GalNAc
# How it was run: as §1
# [31] = target: Fuc(a1-2)Gal(b1-4)GlcNAc6S
# How it was run: as §1
# [32] = target: Fuc(a1-2)Gal(b1-4)[Fuc(a1-3)]GlcNAc
# How it was run: as §1
# [33] = target: Fuc(a1-2)Gal(b1-4)[Fuc(a1-3)]GlcNAc(b1-2)Man(a1-3)[Fuc(a1-2)Gal(b1-4)[Fuc(a1-3)]GlcNAc(b1-2)Man(a1-6)]Man(b1-4)GlcNAc(b1-4)[Fuc(a1-6)]GlcNAc
# How it was run: as §1
# [34] = target: Fuc(a1-2)Gal(b1-4)[Fuc(a1-3)]GlcNAc(b1-2)[Fuc(a1-2)Gal(b1-4)[Fuc(a1-3)]GlcNAc(b1-4)]Man(a1-3)[Fuc(a1-2)Gal(b1-4)[Fuc(a1-3)]GlcNAc(b1-2)Man(a1-6)]Man(b1-4)GlcNAc(b1-4)GlcNAc
# How it was run: as §1
# [35] = target: Fuc(a1-2)Gal(b1-4)[Fuc(a1-3)]GlcNAc(b1-3)Gal(b1-4)[Fuc(a1-3)]GlcNAc
# How it was run: as §1
# [36] = target: Fuc(a1-2)Gal(b1-4)[Fuc(a1-3)]GlcNAc(b1-3)Gal(b1-4)[Fuc(a1-3)]GlcNAc(b1-3)Gal(b1-4)[Fuc(a1-3)]GlcNAc
# How it was run: as §1
# [37] = target: Fuc(a1-2)Gal(b1-4)[Fuc(a1-3)]GlcNAc(b1-3)GalNAc
# How it was run: as §1
# [38] = target: Fuc(a1-2)Gal(b1-4)[Fuc(a1-3)]GlcNAc(b1-3)[Neu5Ac(a2-6)Gal(b1-4)GlcNAc(b1-6)]Gal(b1-4)Glc
# How it was run: as §1
# [39] = target: Fuc(a1-2)Gal3S(b1-4)GlcNAc
# How it was run: as §1
binder,measurement,setting,value
B1,glycan array binding signal (z-score),Fuc(a1-2)Gal,-0.237
same,glycan array binding signal (z-score),Fuc(a1-2)Gal(b1-3)GalNAc,-0.345
same,glycan array binding signal (z-score),[1],0.334
same,glycan array binding signal (z-score),[2],-0.167
same,glycan array binding signal (z-score),[3],-0.325
same,glycan array binding signal (z-score),[4],-0.475
same,glycan array binding signal (z-score),[5],-0.319
same,glycan array binding signal (z-score),Fuc(a1-2)Gal(b1-3)GlcNAc,2.93
same,glycan array binding signal (z-score),[6],1.06
same,glycan array binding signal (z-score),[7],-0.123
same,glycan array binding signal (z-score),[8],3.11
same,glycan array binding signal (z-score),[9],1.56
same,glycan array binding signal (z-score),[10],1.36
same,glycan array binding signal (z-score),[11],2.79
same,glycan array binding signal (z-score),[12],1.52
same,glycan array binding signal (z-score),[13],1.07
same,glycan array binding signal (z-score),[14],-0.399
same,glycan array binding signal (z-score),[15],-0.309
same,glycan array binding signal (z-score),[16],-0.402
same,glycan array binding signal (z-score),[17],-0.394
same,glycan array binding signal (z-score),[18],-0.37
same,glycan array binding signal (z-score),[19],-0.35
same,glycan array binding signal (z-score),Fuc(a1-2)Gal(b1-4)Glc,0.666
same,glycan array binding signal (z-score),Fuc(a1-2)Gal(b1-4)Glc6S,3.43
same,glycan array binding signal (z-score),Fuc(a1-2)Gal(b1-4)GlcNAc,-0.249
same,glycan array binding signal (z-score),[20],-0.228
same,glycan array binding signal (z-score),[21],0.648
same,glycan array binding signal (z-score),[22],-0.355
same,glycan array binding signal (z-score),[23],-0.375
same,glycan array binding signal (z-score),[24],1.23
same,glycan array binding signal (z-score),[25],2.5
same,glycan array binding signal (z-score),[26],1.16
same,glycan array binding signal (z-score),[27],-0.083
same,glycan array binding signal (z-score),[28],-0.338
same,glycan array binding signal (z-score),[29],1.79
same,glycan array binding signal (z-score),[30],-0.267
same,glycan array binding signal (z-score),[31],0.706
same,glycan array binding signal (z-score),[32],-0.389
same,glycan array binding signal (z-score),[33],-0.138
same,glycan array binding signal (z-score),[34],-0.29
same,glycan array binding signal (z-score),[35],-0.335
same,glycan array binding signal (z-score),[36],-0.343
same,glycan array binding signal (z-score),[37],-0.125
same,glycan array binding signal (z-score),[38],-0.358
same,glycan array binding signal (z-score),[39],-0.309
